Experimental data taken from the supplement of paper PMC10338343.
± gives the standard deviation. Over roughly 6,600 sequences, “pre-steady-state target cleavage rate” has its median near 0.07; the highest 2% begin near 0.72. The list shows a part of the results, in another mix than the full data.

These sequences were tested on MIWI (PIWIL1) piRISC loaded with Kctd7 piRNA (30 nt) (assay: pre-steady-state target cleavage rate (min^-1); MIWI and MILI are mouse PIWI proteins and EfPiwi is from a freshwater sponge; tags in brackets are library labels; higher = faster piRNA-guided slicing of the target). Details: guide: Kctd7 piRNA 5'p-UGUUAAUCUCUCAGAGAAGGUGACAGUGAU; auxiliary factor: 500 nM mouse GTSF1.
Method in brief: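 In HEPES–potassium acetate buffer at 33 °C, […] transcribed, DNA-blocked target RNA library was mixed with 1 nM active affinity-purified piRISC carrying one synthetic guide, with or without 500 nM GTSF1 partner protein, for 0–8 or 0–960 min. Uncleaved targets were sequenced and normalised to depth and to weakly complementary targets; three trials were pooled and k3 was capped at 0.0001 min^-1. The pre-steady-state cleavage rate followed from a burst-and-steady-state fit.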
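Also: 1 nM active piRISC with 0.1 nM target library at 33 °C single turnover.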

| Sequence | pre-steady-state target cleavage rate |
| --- | --- |
| UAGUGUGUCGACCUUCUCUGAGAGAUUAACA | 0.155 ± 0.017 |
| UAGUGUGUCACCUUCUCUGAGAGAUUUACA | 0.361 ± 0.052 |
| UAGUGACAGUGCUUCUCUGAGAGAUUGACA | 0.0132 ± 0.0031 |
| UAGUGACAGUCCUUCUCUGAGAGAUAUACA | 0.0072 ± 0.0034 |
| UAGUGAGUCACCUUCUCUGAGAGAAUUACA | 0.129 ± 0.048 |
| AUCACAGUCACCUUCUCUGAGAGAUUUACA | 0.413 ± 0.053 |
| UAGUGACACACCUUCUCUGAGAGACUAACA | 0.228 ± 0.042 |
| AUCACUGUCACCAUCUCUGAGAGAAUAACA | 0.253 ± 0.042 |
| UAGACUGUCACCUUCUGAGAGAGAUUAAGA | 0.0102 ± 0.0025 |
| UAGUGUGUCACCUUCUAUGAGAGAUUAACA | 0.191 ± 0.021 |
| AUCUCUGUCACCUUCUGUGAGAGAUUAACA | 0.496 ± 0.025 |
| AUGACUGUCAGCUUCUCUGAGAGAUUAACA | 0.721 ± 0.046 |
| UAGUCUGUCACCUACUCUGAGUGAUUAACA | 0.0224 ± 0.0033 |
| UAGUGACAGUGGAAGACUCAGAGAUUUACA | < 0.0001 |
| UAGUGUCUCACCUUCUCUGAGAGAUUAUCA | 0.239 ± 0.033 |
| UAGUGUGUCACGAACUCUGAGAGAUUAAGA | 0.00268 ± 0.0022 |
| UAGUGAGUCAGCUUCUCUGAGUGAUUAACA | 0.0171 ± 0.0038 |
| UAGUCUGUCACCUUCUCUGAGAGAUUCACA | 0.434 ± 0.074 |
| UAGUGAGUGACCUUCUCUCAGAGAUUAACA | 0.0655 ± 0.011 |
| UAGUGACAGUGCGUUCUCUGAGAGAUUAACA | 0.0485 ± 0.0053 |
| UAGUGUGUCACCUUGUCUGAGAGAUUAUCA | 0.0628 ± 0.014 |
| UAGUGACAGACCUUCUCAGAGAGUUUAACA | 0.00682 ± 0.004 |
| UAGUCUCAGACCUUCUCUGAGAGAUUAACA | 0.257 ± 0.021 |
| UACACUGUCACCUUCUCUGAGAGAUUAAUA | 0.391 ± 0.051 |

| Sequence | pre-steady-state target cleavage rate |
| --- | --- |
| AUCAGAGUCACCUUCUCUGAGAGAUUAACA | 0.643 ± 0.037 |
| UACAGUGUCACGUUCUCUGAGAGAUUAACA | 0.623 ± 0.025 |
| UACACUCUCUCCUUCUCUGAGAGAUUAACA | 0.349 ± 0.022 |
| UAGUCUGUCACCUUCUCUGAGAGAUUAAGA | 0.122 ± 0.021 |
| UAGUGAGUCACCUUCUCUGAGUAGAUUAACA | 0.00588 ± 0.0042 |
| UAGUGUGACACCUUGUCUGAGAGAUUAACA | 0.113 ± 0.013 |
| UUCUGAGUCACCUUCUCUGAGAGAUAUUGA | 0.0507 ± 0.011 |
| AUCACUGUCACCUUCUCUGAGAGAUAUUGA [g6:g30:cont:t1A] | 0.0731 ± 0.024 |
| UAGUGACAGACCAACUCUGAGAGAUUUUGA | < 0.0001 |
| UAGACUGUCACCUUCUCUGAGAGAAAUACA | 0.0241 ± 0.0079 |
| UAGUGAGUCAGCUUGUCUGAGAGAUUAACA | 0.375 ± 0.023 |
| UACACUGUCACCUUGUCAGAGAGAUUAACA | 0.201 ± 0.03 |
| AUCACUGUCACCUUCUCUCUGAGAUUAAGA | 0.0105 ± 0.0043 |
| AUCUCUGUCACCUUCUCAGAGAGAUUAACA | 0.245 ± 0.024 |
| UAGUGUGUCACCUUCUCUGAGUGAAUAACA | 0.0109 ± 0.0056 |
| UAGACUGUCACCUUCUCUGAGAGAUUAUCA | 0.315 ± 0.035 |
| UAGACUGUCACCUUCUCUGAGUGAUAAACA | 0.00863 ± 0.0026 |
| UUCACUGUCACCUUGUCUGUGAGAUUAACA | 0.127 ± 0.0089 |
| UAGUGUGUCACCUUGUCUGAGUGAUUAACA | 0.0222 ± 0.0048 |
| UACUCUGACACCUUCUCUGAGAGAUUAACA | 0.528 ± 0.028 |
| UAGACUGUCCCUUCUCUGAGAGAUUAACA | 0.609 ± 0.052 |
| UAGUGAGUCACCUACUCUCAGAGAUUAACA | 0.0407 ± 0.0094 |
| AUCACUGUCACCUUCUCUGAGAGUUAAACA | 0.355 ± 0.069 |
| UAGUGAGUCACCUUGUCUGAGAGAUUAACA | 0.136 ± 0.02 |

| Sequence | pre-steady-state target cleavage rate |
| --- | --- |
| UAGUGUGUCACCAUCUCUGAGAGUUUAACA | 0.299 ± 0.058 |
| UAGUGUGUCACCUUGUCUGAGAGAAUAACA | 0.00693 ± 0.0042 |
| UAGACUGUCACCUAUCUCUGAGAGAUUAACA | 0.609 ± 0.047 |
| UAGACUGUCACCUUCAGUGAGAGAUUAACA | 0.0785 ± 0.013 |
| UUCUCUGUCACCUUCUCUGAGAGAUUAUCA | 0.238 ± 0.04 |
| AUCACUGUCACCUUCUCUGAGAGUUAUUGA | 0.328 ± 0.08 |
| UAGUGAGUGAGCUUCUCUGAGAGAUUAACA | 0.155 ± 0.014 |
| UAGUGACACACCUUCUCUGAGAGAUUAACCA | 0.383 ± 0.032 |
| UAGUGAGUCACCUUCUGUGAGAGAUAUUGA | 0.00535 ± 0.0039 |
| UAGUGACACACCCUCUCUGAGAGAUUAACA | 0.502 ± 0.033 |
| UAGUGACAGACCUUCUCUGAGAGAUUAGCA | 0.0403 ± 0.0087 |
| UUCAGUGUCACCUUCUCUGAGAGAUAUUGA | 0.0663 ± 0.021 |
| UAGUGACAGUCCUUCACUGAGAGAUAAACA | 0.0071 ± 0.0041 |
| UAGUGACUCACCUUCGCUGAGAGAUUAACA | 0.0979 ± 0.016 |
| UAGUGUGUCACCUUCUCUGAGAGAUUAGACA | 0.0803 ± 0.017 |
| UAGUGAGUCACCUUCUCUGAGAGAUUAUCA | 0.272 ± 0.035 |
| UAGUGUGUGUCCUUCUCUGAGAGAUUAACA | 0.297 ± 0.023 |
| UAGUGACUCACCUUCUGAGAGAGAUUAAGA | 0.00445 ± 0.0032 |
| UAGUCUGUCAGCUUCUCUGAGUGAUUAACA | 0.0153 ± 0.002 |
| UUCACUGUCACCUUCUACUGAGAGAUUAACA | 0.155 ± 0.047 |
| UAGUGUGUCACGUACUCUGAGAGAUUAACA | 0.106 ± 0.012 |
| UAGUGAGUCACCUUCAGUGAGAGAUUAUGA | 0.00574 ± 0.0046 |
| AUCACUGUCAGCUUCUCUGAGAGAAUAACA | 0.3 ± 0.052 |
| UAGUGACACACCAUCUCUGUGAGAUUAACA | 0.0356 ± 0.0058 |
